Experimental data from the supplement of paper PMC8728848.
This is one part of the list.

Tests used:
Test in all cases: glycan array binding signal (z-score within array); higher = stronger binding
Conditions in all cases: glycan notation: IUPAC condensed, linker removed
[1] = molecular target: GalNAc(b1-4)GlcNAc(b1-2)Man
How it was run: (§1)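 Arrays were curated from the Consortium for Functional Glycomics database, 3228 in total, and kept only where the protein sequence was available. Binding is expressed as a within-array Z-score. This score was averaged across arrays of the same protein sequence at different concentrations or buffers and across linkers, and negative values can be read as non-binding.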

[2] = molecular target: GalNAc(b1-4)GlcNAc(b1-2)Man(a1-3)[GalNAc(b1-4)GlcNAc(b1-2)Man(a1-6)]Man(b1-4)GlcNAc(b1-4)GlcNAc
How it was run: as §1

[3] = molecular target: GalNAc(b1-4)GlcNAc(b1-3)GalNAc(b1-4)GlcNAc
How it was run: as §1

GalNAc(b1-4)GlcNAc6S = molecular target: GalNAc(b1-4)GlcNAc6S
How it was run: as §1

GalNAc(b1-6)GalNAc = molecular target: GalNAc(b1-6)GalNAc
How it was run: as §1

GalNAc3S(b1-4)GlcNAc = molecular target: GalNAc3S(b1-4)GlcNAc
How it was run: as §1

GalNAc3S(b1-4)GlcNAc3S = molecular target: GalNAc3S(b1-4)GlcNAc3S
How it was run: as §1

[4] = molecular target: GalNAc3S(b1-4)[Fuc(a1-3)]GlcNAc
How it was run: as §1

GalNAc4S6S(b1-4)GlcNAc = molecular target: GalNAc4S6S(b1-4)GlcNAc
How it was run: as §1

GalNAc6S(b1-4)GlcNAc = molecular target: GalNAc6S(b1-4)GlcNAc
How it was run: as §1

Glc(a1-4)Glc = molecular target: Glc(a1-4)Glc
How it was run: as §1

[5] = molecular target: Glc(a1-4)Glc(a1-4)Glc(a1-4)Glc
How it was run: as §1

Glc(a1-6)Glc(a1-6)Glc = molecular target: Glc(a1-6)Glc(a1-6)Glc
How it was run: as §1

[6] = molecular target: Glc(a1-6)Glc(a1-6)Glc(a1-6)Glc
How it was run: as §1

Glc(b1-4)Glc = molecular target: Glc(b1-4)Glc
How it was run: as §1

Glc(b1-6)Glc = molecular target: Glc(b1-6)Glc
How it was run: as §1

GlcA(b1-3)Gal = molecular target: GlcA(b1-3)Gal
How it was run: as §1

GlcA(b1-3)GlcNAc = molecular target: GlcA(b1-3)GlcNAc
How it was run: as §1

GlcA(b1-6)Gal = molecular target: GlcA(b1-6)Gal
How it was run: as §1

[7] = molecular target: GlcA3S(b1-3)Gal(b1-4)GlcNAc(b1-2)Man
How it was run: as §1

[8] = molecular target: GlcA3S(b1-3)Gal(b1-4)GlcNAc(b1-3)Gal(b1-4)Glc
How it was run: as §1

[9] = molecular target: GlcNAc(a1-3)Gal(b1-4)GlcNAc
How it was run: as §1

[10] = molecular target: GlcNAc(a1-4)Gal(b1-3)GlcNAc
How it was run: as §1

[11] = molecular target: GlcNAc(a1-4)Gal(b1-4)GalNAc
How it was run: as §1

[12] = molecular target: GlcNAc(a1-4)Gal(b1-4)GlcNAc
How it was run: as §1

[13] = molecular target: GlcNAc(a1-4)Gal(b1-4)GlcNAc(b1-3)Gal(b1-4)Glc
How it was run: as §1

[14] = molecular target: GlcNAc(a1-4)Gal(b1-4)GlcNAc(b1-3)Gal(b1-4)GlcNAc
How it was run: as §1

[15] = molecular target: GlcNAc(a1-4)Gal(b1-4)GlcNAc(b1-3)Gal(b1-4)GlcNAc(b1-3)Gal(b1-4)GlcNAc
How it was run: as §1

[16] = molecular target: GlcNAc(a1-4)Gal(b1-4)GlcNAc(b1-3)Gal(b1-4)[Fuc(a1-3)]GlcNAc(b1-3)Gal(b1-4)[Fuc(a1-3)]GlcNAc
How it was run: as §1

[17] = molecular target: GlcNAc(a1-6)Gal(b1-4)GlcNAc
How it was run: as §1

[18] = molecular target: GlcNAc(b1-2)Gal(b1-3)GalNAc
How it was run: as §1

[19] = molecular target: GlcNAc(b1-2)Man(a1-3)[GlcNAc(b1-2)Man(a1-6)]Man(b1-4)GlcNAc(b1-4)GlcNAc
How it was run: as §1

[20] = molecular target: GlcNAc(b1-2)Man(a1-3)[GlcNAc(b1-2)Man(a1-6)]Man(b1-4)GlcNAc(b1-4)[Fuc(a1-6)]GlcNAc
How it was run: as §1

[21] = molecular target: GlcNAc(b1-2)Man(a1-3)[GlcNAc(b1-4)][GlcNAc(b1-2)Man(a1-6)]Man(b1-4)GlcNAc(b1-4)GlcNAc
How it was run: as §1

[22] = molecular target: GlcNAc(b1-2)Man(a1-3)[GlcNAc(b1-4)][GlcNAc(b1-2)Man(a1-6)]Man(b1-4)GlcNAc(b1-4)[Fuc(a1-6)]GlcNAc
How it was run: as §1

[23] = molecular target: GlcNAc(b1-2)[GlcNAc(b1-4)]Man(a1-3)[GlcNAc(b1-2)Man(a1-6)]Man(b1-4)GlcNAc(b1-4)GlcNAc
How it was run: as §1

[24] = molecular target: GlcNAc(b1-2)[GlcNAc(b1-4)]Man(a1-3)[GlcNAc(b1-4)][GlcNAc(b1-2)Man(a1-6)]Man(b1-4)GlcNAc(b1-4)GlcNAc
How it was run: as §1

[25] = molecular target: GlcNAc(b1-2)[GlcNAc(b1-4)]Man(a1-3)[GlcNAc(b1-4)][GlcNAc(b1-2)[GlcNAc(b1-6)]Man(a1-6)]Man(b1-4)GlcNAc(b1-4)GlcNAc
How it was run: as §1

[26] = molecular target: GlcNAc(b1-2)[GlcNAc(b1-4)]Man(a1-3)[GlcNAc(b1-4)][GlcNAc(b1-2)[GlcNAc(b1-6)]Man(a1-6)]Man(b1-4)GlcNAc(b1-4)[Fuc(a1-6)]GlcNAc
How it was run: as §1

[27] = molecular target: GlcNAc(b1-2)[GlcNAc(b1-6)]Man(a1-6)[GlcNAc(b1-2)Man(a1-3)]Man(b1-4)GlcNAc(b1-4)GlcNAc
How it was run: as §1

[28] = molecular target: GlcNAc(b1-2)[GlcNAc(b1-6)]Man(a1-6)[GlcNAc(b1-2)Man(a1-3)]Man(b1-4)GlcNAc(b1-4)[Fuc(a1-6)]GlcNAc
How it was run: as §1

[29] = molecular target: GlcNAc(b1-2)[GlcNAc(b1-6)]Man(a1-6)[GlcNAc(b1-4)][GlcNAc(b1-2)Man(a1-3)]Man(b1-4)GlcNAc(b1-4)GlcNAc
How it was run: as §1

GlcNAc(b1-3)Fuc = molecular target: GlcNAc(b1-3)Fuc
How it was run: as §1

GlcNAc(b1-3)Gal = molecular target: GlcNAc(b1-3)Gal
How it was run: as §1

[30] = molecular target: GlcNAc(b1-3)Gal(b1-3)GalNAc
How it was run: as §1

B1: EULS2 M2 (Oryza sativa) (protein)
chain: MVYCRANPNYAMTARNGAVVLAPANPKDEYQHWIKDMRWSTSIKDEEGYPAFALVNKATGQAIKHSLGQSHPVRLVPYNPEVMDESVLWTESRDVGNGFRCIRMVNNIYLNFDAFHGDKYHGGVRDGTDIVLWKLCEGDSQRWKIQPYYILEQKLISEEDLNSAVDHHHHHH
[1]
  glycan array binding signal (z-score): -0.096
[2]
  glycan array binding signal (z-score): 1
[3]
  glycan array binding signal (z-score): 1.16
GalNAc(b1-4)GlcNAc6S
  glycan array binding signal (z-score): 0.197
GalNAc(b1-6)GalNAc
  glycan array binding signal (z-score): 0.2
GalNAc3S(b1-4)GlcNAc
  glycan array binding signal (z-score): -0.447
GalNAc3S(b1-4)GlcNAc3S
  glycan array binding signal (z-score): 0.228
[4]
  glycan array binding signal (z-score): -0.834
GalNAc4S6S(b1-4)GlcNAc
  glycan array binding signal (z-score): 1.25
GalNAc6S(b1-4)GlcNAc
  glycan array binding signal (z-score): 0.235
Glc(a1-4)Glc
  glycan array binding signal (z-score): 0.157
[5]
  glycan array binding signal (z-score): -0.217
Glc(a1-6)Glc(a1-6)Glc
  glycan array binding signal (z-score): 0.123
[6]
  glycan array binding signal (z-score): -0.066
Glc(b1-4)Glc
  glycan array binding signal (z-score): -0.299
Glc(b1-6)Glc
  glycan array binding signal (z-score): 1.05
GlcA(b1-3)Gal
  glycan array binding signal (z-score): -0.206
GlcA(b1-3)GlcNAc
  glycan array binding signal (z-score): -0.03
GlcA(b1-6)Gal
  glycan array binding signal (z-score): 0.412
[7]
  glycan array binding signal (z-score): -0.316
[8]
  glycan array binding signal (z-score): -0.843
[9]
  glycan array binding signal (z-score): -0.558
[10]
  glycan array binding signal (z-score): -0.293
[11]
  glycan array binding signal (z-score): -0.051
[12]
  glycan array binding signal (z-score): -0.203
[13]
  glycan array binding signal (z-score): -0.49
[14]
  glycan array binding signal (z-score): -0.264
[15]
  glycan array binding signal (z-score): -0.401
[16]
  glycan array binding signal (z-score): 0.201
[17]
  glycan array binding signal (z-score): -0.429
[18]
  glycan array binding signal (z-score): -0.618
[19]
  glycan array binding signal (z-score): -0.018
[20]
  glycan array binding signal (z-score): -0.386
[21]
  glycan array binding signal (z-score): 0.52
[22]
  glycan array binding signal (z-score): -1.14
[23]
  glycan array binding signal (z-score): -0.803
[24]
  glycan array binding signal (z-score): -0.269
[25]
  glycan array binding signal (z-score): -0.263
[26]
  glycan array binding signal (z-score): 1.81
[27]
  glycan array binding signal (z-score): -0.123
[28]
  glycan array binding signal (z-score): 0.113
[29]
  glycan array binding signal (z-score): -0.431
GlcNAc(b1-3)Fuc
  glycan array binding signal (z-score): -0.78
GlcNAc(b1-3)Gal
  glycan array binding signal (z-score): -0.404
[30]
  glycan array binding signal (z-score): -0.337
